The values below come from article PMC6212790.

This is one part of the list. At the low end of the ranking the order means little.

The experiment addresses T1, GST-Rok (full length) (UniProt O34857).
T1 sequence: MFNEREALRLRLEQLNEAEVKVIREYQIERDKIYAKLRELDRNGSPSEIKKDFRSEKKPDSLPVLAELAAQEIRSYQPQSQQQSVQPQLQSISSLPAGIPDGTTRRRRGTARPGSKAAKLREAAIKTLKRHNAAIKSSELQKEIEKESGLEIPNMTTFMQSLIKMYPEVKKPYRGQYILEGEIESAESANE
Nature of the experiment: protein binding microarray.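 Further: rank score from −0.5 (least bound) to 0.5 (best bound).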 Conditions: Rok is a gene silencer of Bacillus subtilis; high values mean tight binding; most listed sequences are background and not binding sites; double strand, one strand shown.
Take AGATGTAC: the binding signal worked out at 0.315 E-score. The sequence CGCCCCAC came in with a binding signal of -0.433 E-score.

On to TCGAGCGA, for which the binding signal was determined as 0.0435 E-score. In the case of CAATTCAC it was -0.00115 E-score. In the case of AACTTTAG it was -0.037 E-score; in that of CGATGTGA, 0.00829 E-score; in that of TGCTACCA, 0.152 E-score. To AAAGTTGC belongs 0.0569 E-score; to ACGTAATC, 0.0324 E-score.

The sequence ATCGGTCC showed a binding signal of -0.201 E-score.

AGATCAGA: the binding signal worked out at 0.156 E-score. Regarding CTAGAATA, the binding signal is 0.238 E-score. In the case of AACCTCTT it was -0.189 E-score; in that of ACCATGGT, 0.0331 E-score; in that of CGCGCGTA, 0.073 E-score.

Sequence ACCTAGAA registered a binding signal of 0.109 E-score.

As for ATCGCTCA, the binding signal was -0.135 E-score. To TGATCCCA belongs -0.0393 E-score. In the case of CTTCTGAA it was -0.211 E-score; in that of CCTACGAG, -0.119 E-score; in that of AATTCGAG, 0.0847 E-score. In the case of ACCAGAGC it was -0.203 E-score; in that of AACTAACG, 0.294 E-score. The sequence AACATATA registered a binding signal of 0.257 E-score. Take AACCATGC: the binding signal is -0.0502 E-score. In the case of CGATTGTA it was 0.183 E-score; in that of CTAGGTGC, 0.0764 E-score; in that of CTGCATTC, -0.202 E-score. ACCAGCCG had a binding signal of 0.0494 E-score.

In turn, ACATGCCC yielded a binding signal of 0.0712 E-score. In the case of CCCGCCCG it was -0.355 E-score. As for AGCGGCCT, the binding signal is -0.231 E-score.

As for GATTTAAC, the binding signal was determined as 0.168 E-score. In the case of CGTCTGTC it was -0.104 E-score; in that of CACGGACG, -0.107 E-score; in that of GCCAGCCA, -0.303 E-score. In the case of CGCGAGCG it was -0.19 E-score; in that of ATTAACAG, 0.0334 E-score; in that of CAGCGGGA, -0.23 E-score.

With CTAACGCC, the binding signal is -0.11 E-score. To TCTGGGAA belongs 0.0298 E-score; to GATGCCCA, -0.197 E-score; to CTTTATCA, 0.0437 E-score. To GCCAACGC belongs -0.262 E-score; to GTGTGCTA, 0.145 E-score. For AGGCAACA, the binding signal was -0.0653 E-score.

For GAGCGCGA, the binding signal is -0.158 E-score.

AAGCTCAA came in with a binding signal of -0.0295 E-score. Sequence GAGTTAAC yielded a binding signal of 0.0753 E-score.

GAGAACGA: the binding signal came to 0.0446 E-score. To AAATTCAA belongs 0.145 E-score. In the case of CGTATCTA it was 0.203 E-score; in that of CCAAAAGG, -0.25 E-score. For ACGGAAAT, the binding signal turned out to be 0.0416 E-score. For the sequence TAGCTAAA, the binding signal came out at 0.214 E-score. To TTAGACAA belongs -0.00469 E-score; to CGAACTTA, 0.108 E-score; to AAAACGAG, -0.0543 E-score.

CGTTGAGA showed a binding signal of -0.0833 E-score. To CTATGAAA belongs 0.0511 E-score; to AATATTCG, 0.255 E-score; to CCTGTCCG, -0.244 E-score.

GTGGCCCA registered a binding signal of -0.282 E-score.

CATGGACG displayed a binding signal of -0.172 E-score. TAATGCGA yielded a binding signal of 0.268 E-score.

The sequence AGCGATAT returned a binding signal of 0.211 E-score. In the case of GGGCCGAC it was -0.226 E-score; in that of TAATCTGA, 0.0488 E-score. In the case of CATCAGGG it was -0.0393 E-score; in that of GAAAACTA, 0.346 E-score. In the case of AAAAATTA it was 0.222 E-score. On to CACTGGGA, for which the binding signal is -0.274 E-score. In the case of AGTTTTGG it was 0.0757 E-score; in that of GCCTTCTA, -0.198 E-score; in that of AAACAGGC, 0.00493 E-score.

With AATAGATG, the binding signal was determined as 0.261 E-score. To CCTCAAGA belongs 0.0118 E-score. For GGACAGTA, the binding signal amounted to 0.0154 E-score. In the case of GCCTGTTA it was -0.183 E-score; in that of ACTACCAA, 0.305 E-score. To ACAAATCT belongs 0.191 E-score; to AATCCGTG, -0.0286 E-score; to TCTGGTCA, -0.0908 E-score. To ATTCACTG belongs 0.0232 E-score. The sequence CTTGGGCA came in with a binding signal of -0.266 E-score. In the case of ATAAGCAC it was 0.0885 E-score.

Sequence ACTACACA had a binding signal of 0.201 E-score. To CTTGGCAC belongs -0.239 E-score; to CCCTGCAA, -0.136 E-score; to CATACCAG, -0.0105 E-score.

On to CCCAGAGG, for which the binding signal is -0.202 E-score. To CCCCACTA belongs -0.215 E-score; to AAGGCCTA, -0.148 E-score. Turning to AGACGGAC, the binding signal was -0.143 E-score. In the case of CCTAGTTA it was 0.209 E-score.

CTCCGGTA returned a binding signal of -0.0803 E-score. In the case of AAGTGTCC it was -0.0236 E-score; in that of CTAGCCCC, -0.328 E-score.

ATCATCGA gave a binding signal of 0.0997 E-score. In the case of GGGCGGTA it was -0.0377 E-score; in that of CGACATCC, -0.173 E-score. The sequence ATTCCGCA came in with a binding signal of -0.027 E-score.

Consider GCGTGGGA, for which the binding signal was -0.158 E-score.

As for TGCGCGCA, the binding signal stood at 0.0381 E-score. In the case of AGACGTAG it was 0.069 E-score; in that of ATCATAAT, 0.225 E-score; in that of ACCTTGGG, -0.258 E-score. In the case of AAGACTAC, the binding signal stood at 0.119 E-score. Take GTTCTTCA: the binding signal was -0.00738 E-score.
